Hit rate of the full screen: of about 310,000 compounds, about 2,200 (0.71%) showed an effect of 50% or more. The effect is printed as a negative number. The list shows a part of the results.
Biological target: human ether-à-go-go-related gene (hERG) potassium channel (human, UniProt Q12809)
Test: primary screen, population patch clamp on CHO cells stably expressing hERG

Chain of human ether-à-go-go-related gene (hERG) potassium channel (Q12809 whole entry, looked up): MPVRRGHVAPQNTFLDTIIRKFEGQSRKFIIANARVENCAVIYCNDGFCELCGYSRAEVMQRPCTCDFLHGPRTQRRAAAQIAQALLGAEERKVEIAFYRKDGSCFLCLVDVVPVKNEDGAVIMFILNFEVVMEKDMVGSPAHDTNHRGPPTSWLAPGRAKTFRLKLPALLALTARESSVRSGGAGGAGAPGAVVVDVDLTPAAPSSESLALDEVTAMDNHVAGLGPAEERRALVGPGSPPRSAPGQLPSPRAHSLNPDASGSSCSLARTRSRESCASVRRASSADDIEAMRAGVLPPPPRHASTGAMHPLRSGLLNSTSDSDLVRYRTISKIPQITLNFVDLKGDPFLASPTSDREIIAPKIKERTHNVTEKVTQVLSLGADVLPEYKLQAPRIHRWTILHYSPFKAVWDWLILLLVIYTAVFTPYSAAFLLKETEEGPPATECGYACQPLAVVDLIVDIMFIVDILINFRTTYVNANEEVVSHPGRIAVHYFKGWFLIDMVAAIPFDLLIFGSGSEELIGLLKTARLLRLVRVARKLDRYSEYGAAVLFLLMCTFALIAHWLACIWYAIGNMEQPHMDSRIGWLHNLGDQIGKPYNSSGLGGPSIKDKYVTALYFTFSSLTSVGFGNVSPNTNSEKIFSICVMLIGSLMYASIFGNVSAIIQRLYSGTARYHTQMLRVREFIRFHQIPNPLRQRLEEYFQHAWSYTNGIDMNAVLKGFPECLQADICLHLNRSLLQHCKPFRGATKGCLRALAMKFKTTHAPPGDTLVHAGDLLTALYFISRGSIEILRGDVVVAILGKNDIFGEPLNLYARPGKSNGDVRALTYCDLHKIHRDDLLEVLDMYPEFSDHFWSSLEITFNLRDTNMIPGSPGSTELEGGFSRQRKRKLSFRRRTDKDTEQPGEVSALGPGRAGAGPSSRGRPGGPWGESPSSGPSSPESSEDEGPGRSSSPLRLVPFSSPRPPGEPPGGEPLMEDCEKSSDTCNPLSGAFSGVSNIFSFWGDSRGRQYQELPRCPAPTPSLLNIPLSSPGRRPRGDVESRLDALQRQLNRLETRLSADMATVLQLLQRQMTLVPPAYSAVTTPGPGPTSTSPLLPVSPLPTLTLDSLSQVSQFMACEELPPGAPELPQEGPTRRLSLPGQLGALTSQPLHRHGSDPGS

Point of comparison: `COCC(C)N1C(=O)Cc2c1nc(N)c1c(N)nc(N3CCN(c4ccccc4F)CC3)c(C#N)c21` (stereo not drawn), “hERG current change (%, negative = inhibition) at 1uM” value 11.9%. Against it:
- Cc1ccc(NC(=S)NCc2ccc(S(N)(=O)=O)cc2)c(C)c1 — lower, 11%
- CCCc1ccc(-c2c(C)sc(N)c2C#N)cc1 — higher, 16.9%
- CC(C)C(=O)NC(Nc1ccccc1F)C(Cl)(Cl)Cl (stereo not drawn) — lower, 4.85%
- Cc1ccc2c(c1)C(c1ccc(N3CCOCC3)cc1)=NNC(c1cccs1)=N2 — lower, 5.76%
- CCCN1CCc2c(sc(NC(=O)CCS(=O)(=O)c3ccccc3)c2C(N)=O)C1.Cl — lower, -6.02%
- Cc1ccc(NC(=O)CC2S/C(=N/c3nccs3)N(C)C2=O)cc1C (stereo not drawn) — lower, 9.2%
- CN(C)CC/C=C1\c2ccccc2Sc2cc(F)c(Cl)cc21.Cl — lower, 6.95%
- CCc1nnc(NC(=O)CSc2ccc(Cl)cc2)s1 — lower, 1.94%
- COc1ccc(-c2noc(-c3ccc(Br)o3)n2)cc1OC — lower, 10.3%
- COc1cccc(-n2c(C)nc3c(cnn3-c3ccc(C)cc3)c2=O)c1 — lower, 5.26%
- Cc1ccc(S(=O)(=O)Nc2ccc(C(=O)N3CCCC3)cc2)c(C)c1NS(C)(=O)=O — higher, 13.9%
- COCCCNC(=O)CN(c1ccc(F)cc1)S(=O)(=O)c1ccc2c(c1)OCCO2 — lower, 8.78%
- Nc1c(C(=O)NCc2ccc(Cl)cc2)sc2nc3c(c(C(F)(F)F)c12)CCC3 — lower, -7.98%
- Cc1ccc(CC2C(=O)N(c3nc(C)cc(C)n3)C(=O)C2C)cc1 (stereo not drawn) — lower, -4.39%
- CCOC(=O)c1ccc(Cl)c(NC(=O)c2cccnc2)c1 — lower, 1.53%
- CCC1Cc2c(nc(N)c3c(N)nc(N4CCOCC4)c(C#N)c23)O1 (stereo not drawn) — lower, 2.66%
- Cc1cc(OCC(=O)NCc2cccnc2)c2c(C)c(C)c(=O)oc2c1 — lower, -1.54%
- CCOC(=O)c1c(/N=C/c2ccc(O)cc2O)sc2c1CCC2 — lower, 8.96%
- O=C(COC(=O)c1cccc2c1C(=O)c1ccccc1C2=O)NC1CCCCC1 — lower, 7.56%
- Cc1ccc(NC(=O)CSc2nnc(-c3ccco3)n2N)cc1F — higher, 12.5%
- COc1ccc(CCNC(C)C(=O)Nc2ccc(S(N)(=O)=O)cc2)cc1 (stereo not drawn) — lower, 5.66%
- CC(Sc1nc(N2CCOCC2)nc(N2CCOCC2)n1)C(=O)Nc1ccccc1 (stereo not drawn) — higher, 13.7%
- COCCCN1C(=O)C(=O)/C(=C(/O)c2ccc(S(=O)(=O)N3CCOCC3)cc2)C1c1ccc(C(C)C)cc1 (stereo not drawn) — lower, 7.71%
- Cc1ccsc1/C=C(\C#N)C(=O)Nc1c(C)n(C)n(-c2ccccc2)c1=O — lower, 2.8%
- O=C(CN1C(=O)S/C(=C\c2ccc(Cl)cc2)C1=O)NCCCn1ccnc1 — lower, -28.7%
- CCCCn1c(=N)n(CC(O)COc2ccc(C)cc2)c2ccccc21.Cl (stereo not drawn) — lower, -77%
- COc1cccc(NC(=O)CN(C)C(=O)c2ccc(-c3ccccc3Cl)o2)c1 — lower, -5.38%
- Clc1ccc(-c2nnnn2-c2ccc(Cl)c(Cl)c2)cc1Cl — lower, 6.13%
- Nn1c(Cc2cccc3ccccc23)nnc1SCn1nnc2ccccc2c1=O — lower, 10.9%
- O=C(CN(C(=O)CNC(=O)c1cccs1)c1ccccc1F)NC1CCCC1 — higher, 12.5%
- O=C(CC1SC(N2CCCC2)=NC1=O)Nc1ccc(C(=O)N2CCCC(C(F)(F)F)C2)cc1 (stereo not drawn) — higher, 18.7%
- Cc1cc(C(F)F)n2ncc(C(=O)NCCc3ccc(Cl)cc3)c2n1 — lower, 0.647%
- CCc1cccc(OCCn2nc(C(=O)O)c3ccccc3c2=O)c1 — higher, 14.6%
- CNc1nnc(-c2cccc(N(C)C)c2)s1 — lower, 5%
- CCCC/C(O)=C/c1nc2ccccc2[nH]c1=O — lower, 1.79%
- Cc1nn(-c2ccc(F)cc2)c(Cl)c1/C=C/C(=O)OCC(=O)Nc1ccc(F)cc1F — the same, 11.9%
- Clc1ccc(/C=N/N2CCCCC2)cc1 — lower, 7.49%
- CCOc1ccc(C(=O)Nc2nnc(C(C)C)s2)cc1OCC — lower, 9.04%
- O=C(CSc1nnc(CNC(=O)c2ccccc2)o1)Nc1ccc2c(c1)OCO2 — lower, 3.31%
- C/C(=N\NC(=O)c1ccc(N(C)C)cc1)c1ccc(C)cc1C — lower, 9.79%
- CCOC(=O)C1CCCN(Cc2nc(N)nc(Nc3ccc(Cl)cc3)n2)C1 (stereo not drawn) — lower, -71.6%
- O=c1c(-c2ccc(O)cc2)coc2cc(O)ccc12 — higher, 15.8%
- O=C(Cc1cccs1)NCCc1cn2ccccc2n1 — lower, 3.21%
- CN1CCC2(CC1)NC(=O)NC2=O — lower, 5.58%
- Cc1nn(C)c(C(=O)NNC(=S)NCc2ccco2)c1Cl — lower, 2.48%
- COc1ccccc1CCNC(=O)c1nccnc1C(=O)O — higher, 12.3%
- Cc1cccc(C(=O)NCc2ccc(S(N)(=O)=O)cc2)c1[N+](=O)[O-] — lower, 6%
- Cc1ccc(C)c(S(=O)(=O)N2CCN(C(=O)CSc3ccccc3F)CC2)c1 — lower, 8.13%
- COc1cc(C=C2C(=O)OC(c3ccccc3)OC2=O)cc(Br)c1O (stereo not drawn) — lower, 9.32%
- Cc1cccc(C)c1Nc1nnc(SCC(=O)c2ccc(Br)s2)s1 — higher, 12.4%
- COC(=O)CC1c2cc(OC)c(OC)cc2CC(=O)c2cc(OC)c(OC)cc21 (stereo not drawn) — higher, 14.7%
- COc1ccc(OC)c(-n2c(-c3cc(-c4ccc(F)cc4)n[nH]3)n[nH]c2=S)c1 — higher, 12%
- COC(=O)C1=C(c2ccc(F)cc2F)C[C@@H]2CC[C@H]1N2C(=O)N1CCC(C)CC1 — lower, 1.55%
- CC1CC(=S)Nc2ccccc2S1 (stereo not drawn) — lower, 6.33%
- Nc1nonc1-n1nnc(C(=O)O)c1-c1cccs1 — higher, 17.3%
- CCCC(C)NC(=O)COC(=O)c1cccc(NS(C)(=O)=O)c1 (stereo not drawn) — lower, 9.6%
